# Data: the supplement of paper PMC8728848
# Some of the results follow.
# B1: LecB PA7 (Pseudomonas aeruginosa) (protein)
# chain: MATQGVFTLPANTRFGVTAFANSSATQTVKVLVNNETAATFTGQSTNNAVIGSQVLNSGGGGKVQIQVSVNGRSSDLVSAQVILANELNVALVGSEDSTDNDYNDAVVVINWPLG
# Experiments:
# Assay in all cases: glycan array binding signal (z-score within array); higher = stronger binding
# Conditions in all cases: glycan notation: IUPAC condensed, linker removed
# [1] = target: Gal(b1-4)GlcNAc(b1-3)Gal(b1-4)GlcNAc(b1-2)[Gal(b1-4)GlcNAc(b1-3)Gal(b1-4)GlcNAc(b1-6)]Man(a1-6)[Gal(b1-4)GlcNAc(b1-3)Gal(b1-4)GlcNAc(b1-2)Man(a1-3)]Man(b1-4)GlcNAc(b1-4)GlcNAc
# Outline: (§1)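 Negative Z-scores can be read as non-binding. The Z-score is calculated within each array and then averaged across arrays of one protein sequence at different concentrations or buffers and across linkers. Arrays, 3228 in all, were curated from the Consortium for Functional Glycomics database and kept only where the protein sequence was available.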
# [2] = target: Gal(b1-4)GlcNAc(b1-3)Gal(b1-4)GlcNAc(b1-2)[Gal(b1-4)GlcNAc(b1-3)Gal(b1-4)GlcNAc(b1-6)]Man(a1-6)[Gal(b1-4)GlcNAc(b1-3)Gal(b1-4)GlcNAc(b1-2)Man(a1-3)]Man(b1-4)GlcNAc(b1-4)[Fuc(a1-6)]GlcNAc
# Outline: as §1
# [3] = target: Gal(b1-4)GlcNAc(b1-3)Gal(b1-4)GlcNAc(b1-3)Gal(b1-4)GlcNAc
# Outline: as §1
# [4] = target: Gal(b1-4)GlcNAc(b1-3)Gal(b1-4)GlcNAc(b1-3)Gal(b1-4)GlcNAc(b1-2)Man(a1-3)[Gal(b1-4)GlcNAc(b1-3)Gal(b1-4)GlcNAc(b1-3)Gal(b1-4)GlcNAc(b1-2)Man(a1-6)]Man(b1-4)GlcNAc(b1-4)GlcNAc
# Outline: as §1
# [5] = target: Gal(b1-4)GlcNAc(b1-3)Gal(b1-4)GlcNAc(b1-3)Gal(b1-4)GlcNAc(b1-2)Man(a1-3)[Gal(b1-4)GlcNAc(b1-3)Gal(b1-4)GlcNAc(b1-3)Gal(b1-4)GlcNAc(b1-2)Man(a1-6)]Man(b1-4)GlcNAc(b1-4)[Fuc(a1-6)]GlcNAc
# Outline: as §1
# [6] = target: Gal(b1-4)GlcNAc(b1-3)Gal(b1-4)GlcNAc(b1-3)Gal(b1-4)GlcNAc(b1-2)[Gal(b1-4)GlcNAc(b1-3)Gal(b1-4)GlcNAc(b1-3)Gal(b1-4)GlcNAc(b1-6)]Man(a1-6)[Gal(b1-4)GlcNAc(b1-3)Gal(b1-4)GlcNAc(b1-3)Gal(b1-4)GlcNAc(b1-2)Man(a1-3)]Man(b1-4)GlcNAc(b1-4)[Fuc(a1-6)]GlcNAc
# Outline: as §1
# [7] = target: Gal(b1-4)GlcNAc(b1-3)Gal(b1-4)GlcNAc(b1-3)Gal(b1-4)GlcNAc(b1-3)Gal(b1-4)GlcNAc(b1-2)Man(a1-3)[Gal(b1-4)GlcNAc(b1-3)Gal(b1-4)GlcNAc(b1-3)Gal(b1-4)GlcNAc(b1-3)Gal(b1-4)GlcNAc(b1-2)Man(a1-6)]Man(b1-4)GlcNAc(b1-4)GlcNAc
# Outline: as §1
# [8] = target: Gal(b1-4)GlcNAc(b1-3)Gal(b1-4)GlcNAc(b1-3)Gal(b1-4)GlcNAc(b1-3)Gal(b1-4)GlcNAc(b1-2)Man(a1-3)[Gal(b1-4)GlcNAc(b1-3)Gal(b1-4)GlcNAc(b1-3)Gal(b1-4)GlcNAc(b1-3)Gal(b1-4)GlcNAc(b1-2)Man(a1-6)]Man(b1-4)GlcNAc(b1-4)[Fuc(a1-6)]GlcNAc
# Outline: as §1
# [9] = target: Gal(b1-4)GlcNAc(b1-3)Gal(b1-4)GlcNAc(b1-3)Gal(b1-4)GlcNAc(b1-3)Gal(b1-4)GlcNAc(b1-2)[Gal(b1-4)GlcNAc(b1-3)Gal(b1-4)GlcNAc(b1-3)Gal(b1-4)GlcNAc(b1-3)Gal(b1-4)GlcNAc(b1-6)]Man(a1-6)[Gal(b1-4)GlcNAc(b1-3)Gal(b1-4)GlcNAc(b1-3)Gal(b1-4)GlcNAc(b1-3)Gal(b1-4)GlcNAc(b1-2)Man(a1-3)]Man(b1-4)GlcNAc(b1-4)[Fuc(a1-6)]GlcNAc
# Outline: as §1
# [10] = target: Gal(b1-4)GlcNAc(b1-3)Gal(b1-4)GlcNAc(b1-3)Gal(b1-4)GlcNAc(b1-3)Gal(b1-4)GlcNAc(b1-3)Gal(b1-4)GlcNAc(b1-2)Man(a1-3)[Gal(b1-4)GlcNAc(b1-3)Gal(b1-4)GlcNAc(b1-3)Gal(b1-4)GlcNAc(b1-3)Gal(b1-4)GlcNAc(b1-3)Gal(b1-4)GlcNAc(b1-2)Man(a1-6)]Man(b1-4)GlcNAc(b1-4)GlcNAc
# Outline: as §1
# [11] = target: Gal(b1-4)GlcNAc(b1-3)Gal(b1-4)GlcNAc(b1-3)Gal(b1-4)GlcNAc(b1-3)Gal(b1-4)GlcNAc(b1-3)Gal(b1-4)GlcNAc(b1-2)Man(a1-3)[Gal(b1-4)GlcNAc(b1-3)Gal(b1-4)GlcNAc(b1-3)Gal(b1-4)GlcNAc(b1-3)Gal(b1-4)GlcNAc(b1-3)Gal(b1-4)GlcNAc(b1-2)Man(a1-6)]Man(b1-4)GlcNAc(b1-4)[Fuc(a1-6)]GlcNAc
# Outline: as §1
# [12] = target: Gal(b1-4)GlcNAc(b1-3)Gal(b1-4)GlcNAc(b1-3)Gal(b1-4)GlcNAc(b1-3)Gal(b1-4)GlcNAc(b1-3)Gal(b1-4)GlcNAc(b1-2)[Gal(b1-4)GlcNAc(b1-3)Gal(b1-4)GlcNAc(b1-3)Gal(b1-4)GlcNAc(b1-3)Gal(b1-4)GlcNAc(b1-3)Gal(b1-4)GlcNAc(b1-6)]Man(a1-6)[Gal(b1-4)GlcNAc(b1-3)Gal(b1-4)GlcNAc(b1-3)Gal(b1-4)GlcNAc(b1-3)Gal(b1-4)GlcNAc(b1-3)Gal(b1-4)GlcNAc(b1-2)Man(a1-3)]Man(b1-4)GlcNAc(b1-4)[Fuc(a1-6)]GlcNAc
# Outline: as §1
# [13] = target: Gal(b1-4)GlcNAc(b1-3)Gal(b1-4)GlcNAc(b1-3)Gal(b1-4)GlcNAc(b1-3)Gal(b1-4)GlcNAc(b1-3)Gal(b1-4)GlcNAc(b1-3)Gal(b1-4)GlcNAc(b1-2)Man(a1-3)[Gal(b1-4)GlcNAc(b1-3)Gal(b1-4)GlcNAc(b1-3)Gal(b1-4)GlcNAc(b1-3)Gal(b1-4)GlcNAc(b1-3)Gal(b1-4)GlcNAc(b1-3)Gal(b1-4)GlcNAc(b1-2)Man(a1-6)]Man(b1-4)GlcNAc(b1-4)GlcNAc
# Outline: as §1
# [14] = target: Gal(b1-4)GlcNAc(b1-3)Gal(b1-4)GlcNAc(b1-3)GalNAc
# Outline: as §1
# [15] = target: Gal(b1-4)GlcNAc(b1-3)Gal(b1-4)GlcNAc(b1-3)[Gal(b1-4)GlcNAc(b1-3)Gal(b1-4)GlcNAc(b1-6)]GalNAc
# Outline: as §1
# [16] = target: Gal(b1-4)GlcNAc(b1-3)Gal(b1-4)GlcNAc(b1-6)[Gal(b1-3)]GalNAc
# Outline: as §1
# [17] = target: Gal(b1-4)GlcNAc(b1-3)Gal(b1-4)[Fuc(a1-3)]GlcNAc(b1-3)Gal(b1-4)[Fuc(a1-3)]GlcNAc
# Outline: as §1
# [18] = target: Gal(b1-4)GlcNAc(b1-3)GalNAc
# Outline: as §1
# [19] = target: Gal(b1-4)GlcNAc(b1-3)[Fuc(a1-3)GlcNAc(b1-6)]Gal(b1-4)Glc
# Outline: as §1
# [20] = target: Gal(b1-4)GlcNAc(b1-3)[Gal(b1-4)GlcNAc(b1-6)]Gal(b1-4)GlcNAc
# Outline: as §1
# [21] = target: Gal(b1-4)GlcNAc(b1-3)[GlcNAc(b1-6)]Gal(b1-4)GlcNAc
# Outline: as §1
# [22] = target: Gal(b1-4)GlcNAc(b1-6)Gal(b1-4)GlcNAc
# Outline: as §1
# [23] = target: Gal(b1-4)GlcNAc(b1-6)GalNAc
# Outline: as §1
# [24] = target: Gal(b1-4)GlcNAc(b1-6)[Gal(b1-3)]GalNAc
# Outline: as §1
# [25] = target: Gal(b1-4)GlcNAc(b1-6)[Gal(b1-4)GlcNAc(b1-3)]GalNAc
# Outline: as §1
# Gal(b1-4)GlcNAc6P = target: Gal(b1-4)GlcNAc6P
# Outline: as §1
# Gal(b1-6)Gal = target: Gal(b1-6)Gal
# Outline: as §1
# Gal3S(b1-3)GalNAc = target: Gal3S(b1-3)GalNAc
# Outline: as §1
# Gal3S(b1-3)GlcNAc = target: Gal3S(b1-3)GlcNAc
# Outline: as §1
# [26] = target: Gal3S(b1-3)[Fuc(a1-4)]GlcNAc
# Outline: as §1
# Gal3S(b1-4)Glc = target: Gal3S(b1-4)Glc
# Outline: as §1
# Gal3S(b1-4)Glc6S = target: Gal3S(b1-4)Glc6S
# Outline: as §1
# Gal3S(b1-4)GlcNAc = target: Gal3S(b1-4)GlcNAc
# Outline: as §1
# [27] = target: Gal3S(b1-4)[Fuc(a1-3)]Glc6S
# Outline: as §1
# [28] = target: Gal3S(b1-4)[Fuc(a1-3)]GlcNAc
# Outline: as §1
# [29] = target: Gal3S(b1-4)[Fuc(a1-3)]GlcNAc6S
# Outline: as §1
# Gal3S4S(b1-4)GlcNAc = target: Gal3S4S(b1-4)GlcNAc
# Outline: as §1
# Gal3S6S(b1-4)GlcNAc = target: Gal3S6S(b1-4)GlcNAc
# Outline: as §1
# Gal3S6S(b1-4)GlcNAc6S = target: Gal3S6S(b1-4)GlcNAc6S
# Outline: as §1
# Gal4S(b1-4)GlcNAc = target: Gal4S(b1-4)GlcNAc
# Outline: as §1
# Gal4S6S(b1-4)GlcNAc = target: Gal4S6S(b1-4)GlcNAc
# Outline: as §1
# Gal6P(b1-4)GlcNAc = target: Gal6P(b1-4)GlcNAc
# Outline: as §1
# Gal6S(b1-3)GlcNAc = target: Gal6S(b1-3)GlcNAc
# Outline: as §1
# Gal6S(b1-3)GlcNAc6S = target: Gal6S(b1-3)GlcNAc6S
# Outline: as §1
# Gal6S(b1-4)Glc = target: Gal6S(b1-4)Glc
# Outline: as §1
binder,measurement,setting,value
B1,glycan array binding signal (z-score),[1],-0.226
same,glycan array binding signal (z-score),[2],0.227
same,glycan array binding signal (z-score),[3],-0.502
same,glycan array binding signal (z-score),[4],-0.489
same,glycan array binding signal (z-score),[5],0.251
same,glycan array binding signal (z-score),[6],0.021
same,glycan array binding signal (z-score),[7],-0.439
same,glycan array binding signal (z-score),[8],0.21
same,glycan array binding signal (z-score),[9],0.012
same,glycan array binding signal (z-score),[10],-0.467
same,glycan array binding signal (z-score),[11],0.512
same,glycan array binding signal (z-score),[12],0.197
same,glycan array binding signal (z-score),[13],-0.412
same,glycan array binding signal (z-score),[14],-0.487
same,glycan array binding signal (z-score),[15],-0.495
same,glycan array binding signal (z-score),[16],-0.487
same,glycan array binding signal (z-score),[17],2.05
same,glycan array binding signal (z-score),[18],-0.505
same,glycan array binding signal (z-score),[19],0.03
same,glycan array binding signal (z-score),[20],-0.511
same,glycan array binding signal (z-score),[21],-0.043
same,glycan array binding signal (z-score),[22],-0.503
same,glycan array binding signal (z-score),[23],-0.396
same,glycan array binding signal (z-score),[24],-0.349
same,glycan array binding signal (z-score),[25],-0.508
same,glycan array binding signal (z-score),Gal(b1-4)GlcNAc6P,-0.513
same,glycan array binding signal (z-score),Gal(b1-6)Gal,-0.493
same,glycan array binding signal (z-score),Gal3S(b1-3)GalNAc,-0.349
same,glycan array binding signal (z-score),Gal3S(b1-3)GlcNAc,-0.501
same,glycan array binding signal (z-score),[26],2.65
same,glycan array binding signal (z-score),Gal3S(b1-4)Glc,-0.487
same,glycan array binding signal (z-score),Gal3S(b1-4)Glc6S,-0.496
same,glycan array binding signal (z-score),Gal3S(b1-4)GlcNAc,-0.497
same,glycan array binding signal (z-score),[27],0.91
same,glycan array binding signal (z-score),[28],0.828
same,glycan array binding signal (z-score),[29],-0.51
same,glycan array binding signal (z-score),Gal3S4S(b1-4)GlcNAc,-0.504
same,glycan array binding signal (z-score),Gal3S6S(b1-4)GlcNAc,-0.514
same,glycan array binding signal (z-score),Gal3S6S(b1-4)GlcNAc6S,-0.506
same,glycan array binding signal (z-score),Gal4S(b1-4)GlcNAc,-0.478
same,glycan array binding signal (z-score),Gal4S6S(b1-4)GlcNAc,-0.51
same,glycan array binding signal (z-score),Gal6P(b1-4)GlcNAc,-0.507
same,glycan array binding signal (z-score),Gal6S(b1-3)GlcNAc,-0.514
same,glycan array binding signal (z-score),Gal6S(b1-3)GlcNAc6S,-0.513
same,glycan array binding signal (z-score),Gal6S(b1-4)Glc,-0.49
